Experimental data published in PubChem BioAssay AID540267 (National Center for Advancing Translational Sciences (NCATS), 2011).
Screen size: about 340,000 compounds; about 530 (0.16%) were called active. Inconclusive means that the source gave no clear call. Such entries were picked first, then a sample of the others. No stated cut-off is given here; in the data, active means activity change below about -80%; inconclusive means between about -30% and that limit; inactive means weaker than that.

assay: Small Molecules that selectively kill Giardia lamblia: qHTS; settings: Giardia lamblia trophozoite viability; at 7.66 µM; active compounds read low;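 further: parasites exposed to compound for two days anaerobically before the ATP read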
Summary of the method: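 ATP-content bioluminescence gauges trophozoite survival. Cells (100/well) receive compound and incubate anaerobically for 48 hrs at 37 deg C; detection reagent follows for 15-30 min at room temperature.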
On the % scale 0 is the no-effect control and ±100 the full control effect.

Compound	activity change
CSc1cccc(N2CC(C(=O)Nc3cccc(S(=O)(=O)N4CCCC4)c3)CC2=O)c1 (centres undefined)	inactive: 4.46%
CN1CCCC1c1cccnc1 (centres undefined)	inconclusive: -32% [inhibitor]
COc1cc(C(c2c(C(=O)O)[nH]c3ccccc23)c2c(C(=O)O)[nH]c3ccccc23)ccc1OCc1ccccc1	inactive: -10%
COC(=O)[C@@]12CCCCN1[C@H](c1ccc(-c3ccc4c(c3)OCO4)cc1)[C@H]1C(=O)N(C)C(=O)[C@H]12	inconclusive: -30.9% [inhibitor]
CC(Oc1cc2oc(=O)c3c(c2cc1Cl)CCC3)C(=O)NCc1cccnc1 (centres undefined)	inconclusive: -35.1% [inhibitor]
CC1CCN(c2nc3c(c(=O)[nH]c(=O)n3C)n2CCSc2ncccn2)CC1	inconclusive: -32% [inhibitor]
COc1ccc(OC)c(C(=O)NC2CC(C)(C)Cc3c2cnn3-c2ccccc2)c1 (centres undefined)	inactive: -17.8%
CCn1c(O)c(/C=N/N=C/c2ccc(OC)cc2)c2cc(C3=NNC(=O)CC3)ccc21	inconclusive: -37.3% [inhibitor]
CCOC(=O)C(C)Oc1cccc2c(=O)n(CC(=O)N3CCN(C(=O)OCC)CC3)ccc12 (centres undefined)	inconclusive: -30.2% [inhibitor]
CN(C)CCCNc1oc(-c2ccccc2Cl)nc1S(=O)(=O)c1ccccc1	inconclusive: -40.6% [inhibitor]
CC1(C)OC(c2ccccc2)=C/C(=C/C=N/NC(=O)c2ccncc2)O1	inactive: -0.944%
CC(C)CSc1nnc2c3ccccc3n(C)c2n1	inconclusive: -32.1% [inhibitor]
O=C(c1cccc(F)c1)N(Cc1nc2ccccc2c(=O)[nH]1)C1CCCC1	inconclusive: -42.5% [inhibitor]
O=C(Nc1ccc(Br)cn1)c1ccc([N+](=O)[O-])o1	active: -87.6%
CCOC(=O)c1cnn(-c2ccc([N+](=O)[O-])cc2)c1N	inconclusive: -30.1% [inhibitor]
COc1ccc(C(=O)Nc2nc3ccccc3s2)cc1	inconclusive: -31.1% [inhibitor]
Cn1ccnc1SCCNC(=O)CCc1nnc(CCc2ccccc2)o1	inactive: -5.69%
CCCCC(=O)/C=C/n1c(=S)oc2ccccc21	inactive: -16.3%
Cc1ccc(NC(=S)NC(C)(C)C)c([N+](=O)[O-])c1	inconclusive: -41.7% [inhibitor]
O=c1[nH]cnc(O)c1C(c1ccc(Br)cc1)c1c(O)nc[nH]c1=O	inconclusive: -39.5% [inhibitor]
O=C(CN1CCCC1)N1c2ccccc2Sc2ccccc21	inactive: -1.44%
CC(C)(C)Cc1nnc(NC(=O)c2ccc([N+](=O)[O-])cc2)s1	inconclusive: -30.2% [inhibitor]
O=C(Nc1cc(-c2nc3ncccc3o2)ccc1Cl)c1ccc([N+](=O)[O-])o1	active: -82.8%
O=C(c1nsnc1-c1ccccc1O)N1CCCCC1	inactive: 6.51%
CCCCCCC[C@@H](C/C=C/CCC(=O)N(C)C/C(=C/Cl)C/C(=C\C(=O)N1CC(OC)=CC1=O)OC)OC	inconclusive: -30.8% [inhibitor]
CC(Oc1ccc2c3c(c(=O)oc2c1)CCC3)C(=O)NCCCn1ccnc1 (centres undefined)	inactive: -5.32%
Cc1csc(NC(=O)CSc2nc3[nH]c(=O)cc(O)c3s2)n1	active: -87.1%

Compound	activity change
O=C(Cc1ccccc1)Nc1nccs1	inconclusive: -30.4% [inhibitor]
NC1=C(Br)C(=O)c2ccccc2C1=O	inconclusive: -44.3% [inhibitor]
COc1ccc(CNC(=O)[C@@H]2CCCN2C(=O)[C@@H]2Cc3ccccc3CN2C(=O)OC(C)(C)C)cc1	inconclusive: -32.9% [inhibitor]
COc1ccc(NC(=O)CCNS(=O)(=O)c2ccccc2F)cc1S(N)(=O)=O	inconclusive: -32.4% [inhibitor]
CCOc1ccc(N(CC(=O)N2CCN(C(=O)CN(c3ccc(OCC)cc3)S(C)(=O)=O)CC2)S(C)(=O)=O)cc1	inactive: -17.6%
O=C(Nc1ccccc1)N1CCc2ccccc21	inactive: -6.19%
C[N+](C)(CC#Cc1ccccc1)CC(=O)c1ccccc1	inactive: -7.79%
O=C1CS(=O)(=O)N(Cc2ccc(F)cc2)c2ccccc21	inconclusive: -38.8% [inhibitor]
CN(C)C(=N)N=C(N)N	inconclusive: -42.9% [inhibitor]
Cn1c2ccccc2c2cnn(CC(=O)Nc3ccc(Cl)cc3)c(=O)c21	inconclusive: -34.3% [inhibitor]
C[C@H](CO)N1C[C@H](C)[C@@H](CN(C)S(C)(=O)=O)Oc2ccc(NC(=O)Nc3ccccc3)cc2C1=O	inconclusive: -36.5% [inhibitor]
Cc1cc(C(=O)CCC(=O)NC(C)c2ccc(S(N)(=O)=O)cc2)c(C)s1 (centres undefined)	inconclusive: -51.8% [inhibitor]
CCOc1cc(/C=C2\SC(=N)N(c3nccs3)C2=O)ccc1OCCN1CCOCC1	inconclusive: -33.2% [inhibitor]
CCOC(=O)C1CCN(c2c(Nc3ccc4c(c3)OCCO4)c(=O)c2=O)CC1	inconclusive: -31.9% [inhibitor]
Cc1ccc(NC(=O)c2c(-c3ccccc3)noc2C)nc1	inactive: 0.992%
Cc1ccccc1-c1cccc([C@@H]2C[C@H]3[C@H](CON3C)CN2C(=O)C(C)(C)C)c1	inactive: 17.3%
NC(=O)c1ccc(NC(=O)COc2ccc([N+](=O)[O-])cc2Cl)cc1	inconclusive: -46.5% [inhibitor]
Cn1c(=O)c(C(=O)NCC2CCCO2)c(O)c2ccccc21 (centres undefined)	inactive: -0.164%
COc1ccc(C2c3c(oc4ccc(Cl)cc4c3=O)C(=O)N2CCN2CCOCC2)cc1 (centres undefined)	inconclusive: -32.4% [inhibitor]
Cc1ccc(S(=O)(=O)N2CC(C(=O)O)=CC[C@H]2c2ccc(Cl)cc2)cc1	inconclusive: -49.2% [inhibitor]
O=C(NCO)c1cccnc1	inconclusive: -34.3% [inhibitor]
Clc1ccc(CSc2nc3ccncc3[nH]2)cc1	inconclusive: -78.3% [inhibitor]
CN(C(=O)CSc1nc2ccccc2c(=O)n1-c1ccc(F)cc1F)C1CCS(=O)(=O)C1 (centres undefined)	inconclusive: -30.5% [inhibitor]
COc1ccc(NC(=O)c2cc(=O)[nH]c3ccccc23)cc1	inconclusive: -43.4% [inhibitor]
Cc1cccc(NC(=O)c2nc[nH]c2C(=O)N2CCC(C)CC2)c1	inconclusive: -31.9% [inhibitor]
Cc1nc(-c2ccc(C(=O)Nc3cccc(F)c3)cc2)cs1	inconclusive: -57% [inhibitor]
CCOC(=O)N1CCN(C(=S)NC(=O)c2cccc(OC)c2)CC1	inactive: 0.0757%

Compound	activity change
Cc1nc2ccc(NC(=S)NC3CC3)cc2nc1C	inactive: 3.73%
Cn1c(-c2ccc(Br)o2)nc2ccccc21	inconclusive: -38.8% [inhibitor]
COc1cc([N+](=O)[O-])ccc1N/C=C/C(=O)c1cccs1	inconclusive: -59.1% [inhibitor]
COC(=O)c1ccsc1NC(=O)C1COc2ccccc2O1 (centres undefined)	inconclusive: -32.3% [inhibitor]
O=C(Nc1ccc(C(F)(F)F)cc1)c1ccc2ncsc2c1	inactive: -12.3%
C/C(=N\N(Cc1ccccc1)c1ccccc1)c1cccnc1	inactive: -3.9%
COCCNc1nc(NCc2ccccc2)c2cnn(C)c2n1	inconclusive: -34.4% [inhibitor]
O=C(NCc1ccco1)NC(=O)c1csc([N+](=O)[O-])c1	active: -81.8%
Cc1cc2ncc(-c3ncc(C(F)(F)F)cc3Cl)cn2n1	inconclusive: -32.9% [inhibitor]
O=C(Cc1cccc(NC(=O)C2CCCN(C(=O)CCc3ccccc3)C2)c1)Nc1cccc(C(=O)N2CCCCC2)c1 (centres undefined)	inconclusive: -32.2% [inhibitor]
COc1ccc(OC)c(-n2c(SCC(N)=O)nnc2-c2c[nH]c3ccccc23)c1	inconclusive: -36.3% [inhibitor]
COc1ccc2c3n([n+]([O-])c2c1)CCN=C3c1cc(Cl)c(N)c(Cl)c1	active: -92.7%
COc1cccc(-c2c(-c3cc(OC)cc(OC)c3)n(C)c3ccc(-c4ccc5cc[nH]c5c4)cc23)c1	inactive: 8.26%
O=C(CCS(=O)(=O)c1ccc(Br)cc1)N1CCN(c2ccccc2Cl)CC1	inconclusive: -30.6% [inhibitor]
CC(=O)N1CCc2c(sc(NC(=O)c3ccc([N+](=O)[O-])o3)c2C#N)C1	active: -88.2%
CCc1ccc(NC(=O)c2cnccn2)cc1	inconclusive: -31% [inhibitor]
NC(=O)NNC1=Nc2cccc3cccc1c23	inconclusive: -32.7% [inhibitor]
CSCCC(NC(=O)c1ccccc1)C(=O)O (centres undefined)	inconclusive: -34.4% [inhibitor]
Cc1ccc(OCc2nnc(N)s2)cc1C	inactive: 6.14%
CCCCc1ccc(NC(=O)CSc2nc(=O)n(CCN(CC)CC)c3c2CCC3)cc1	inactive: -6.61%
COc1ccc(OCCNC2CCCC2)cc1	inconclusive: -44.7% [inhibitor]
Cc1ccc(NC(=O)COC(=O)c2ccc(F)cc2Cl)c(Br)c1	inconclusive: -31.7% [inhibitor]
Cc1cccc(NC(=O)CCNS(=O)(=O)c2cccc3nonc23)c1C	inactive: 31.9%
Cc1ccc(NC(=O)c2cc(F)c(F)cc2Cl)nc1	inconclusive: -33.7% [inhibitor]
O=C1OC(c2ccccc2)=C/C1=C\N1CCOCC1	inactive: 17.3%
